# Results reported in article PMC9911399, “Two distinct binding modes provide the RNA-binding protein RbFox with extraordinary sequence specificity”.
# Substitutions are numbered along the chain they refer to; changes in the protein carry UniProt numbers. This is one part of the list.
# T1: RBFOX1 RRM (Homo sapiens, UniProt Q9NWB1 109-208)
# T1 sequence: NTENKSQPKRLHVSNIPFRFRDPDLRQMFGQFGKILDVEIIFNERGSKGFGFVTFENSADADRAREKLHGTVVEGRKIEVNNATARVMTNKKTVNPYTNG
# B1: GGGCGGA (DNA:RNA)
# RNA: GGGAGACCGGAAUUCAGAUUGUCCGGGCGGAUUAAAUCCCGUCGUAGCCACCA
# DNA 1: CAATCTGAATTCCGGTCTCCC
# DNA 2: TGGTGGCTACGACGGGATT
# B2: AUAGACC (DNA:RNA)
# RNA: GGGAGACCGGAAUUCAGAUUGUCCAUAGACCUUAAAUCCCGUCGUAGCCACCA
# DNA 1: CAATCTGAATTCCGGTCTCCC
# DNA 2: TGGTGGCTACGACGGGATT
# B3: UCACAUA (DNA:RNA)
# RNA: B2 RNA with A25U, U26C, G28C, C30U, C31A
# DNA 1: CAATCTGAATTCCGGTCTCCC
# DNA 2: TGGTGGCTACGACGGGATT
# B4: AGACGCC (DNA:RNA)
# RNA: B2 RNA with U26G, G28C, A29G
# DNA 1: CAATCTGAATTCCGGTCTCCC
# DNA 2: TGGTGGCTACGACGGGATT
# B5: UCAUUCC (DNA:RNA)
# RNA: B2 RNA with A25U, U26C, G28U, A29U
# DNA 1: CAATCTGAATTCCGGTCTCCC
# DNA 2: TGGTGGCTACGACGGGATT
# B6: CACCUAC (DNA:RNA)
# RNA: B2 RNA with A25C, U26A, A27C, G28C, A29U, C30A
# DNA 1: CAATCTGAATTCCGGTCTCCC
# DNA 2: TGGTGGCTACGACGGGATT
# B7: AAACAGU (DNA:RNA)
# RNA: B2 RNA with U26A, G28C, C30G, C31U
# DNA 1: CAATCTGAATTCCGGTCTCCC
# DNA 2: TGGTGGCTACGACGGGATT
# B8: AAUCUUU (DNA:RNA)
# RNA: B2 RNA with U26A, A27U, G28C, A29U, C30U, C31U
# DNA 1: CAATCTGAATTCCGGTCTCCC
# DNA 2: TGGTGGCTACGACGGGATT
# B9: GUGCUGC (DNA:RNA)
# RNA: B1 RNA with G26U, G29U, A31C
# DNA 1: CAATCTGAATTCCGGTCTCCC
# DNA 2: TGGTGGCTACGACGGGATT
# B10: CAUGGGG (DNA:RNA)
# RNA: B1 RNA with G25C, G26A, G27U, C28G, A31G
# DNA 1: CAATCTGAATTCCGGTCTCCC
# DNA 2: TGGTGGCTACGACGGGATT
# B11: GCUAGUU (DNA:RNA)
# RNA: B1 RNA with G26C, G27U, C28A, G30U, A31U
# DNA 1: CAATCTGAATTCCGGTCTCCC
# DNA 2: TGGTGGCTACGACGGGATT
# B12: CCAGCUA (DNA:RNA)
# RNA: B2 RNA with A25C, U26C, A29C, C30U, C31A
# DNA 1: CAATCTGAATTCCGGTCTCCC
# DNA 2: TGGTGGCTACGACGGGATT
# B13: AACACCG (DNA:RNA)
# RNA: B2 RNA with U26A, A27C, G28A, A29C, C31G
# DNA 1: CAATCTGAATTCCGGTCTCCC
# DNA 2: TGGTGGCTACGACGGGATT
# B14: GCCUAAG (DNA:RNA)
# RNA: B2 RNA with A25G, U26C, A27C, G28U, C30A, C31G
# DNA 1: CAATCTGAATTCCGGTCTCCC
# DNA 2: TGGTGGCTACGACGGGATT
# B15: UUCUCUG (DNA:RNA)
# RNA: B2 RNA with A25U, A27C, G28U, A29C, C30U, C31G
# DNA 1: CAATCTGAATTCCGGTCTCCC
# DNA 2: TGGTGGCTACGACGGGATT
# B16: AGCGUUA (DNA:RNA)
# RNA: B2 RNA with U26G, A27C, A29U, C30U, C31A
# DNA 1: CAATCTGAATTCCGGTCTCCC
# DNA 2: TGGTGGCTACGACGGGATT
# B17: CGCGGUA (DNA:RNA)
# RNA: B1 RNA with G25C, G27C, C28G, G30U
# DNA 1: CAATCTGAATTCCGGTCTCCC
# DNA 2: TGGTGGCTACGACGGGATT
# B18: UAGAGUC (DNA:RNA)
# RNA: B1 RNA with G25U, G26A, C28A, G30U, A31C
# DNA 1: CAATCTGAATTCCGGTCTCCC
# DNA 2: TGGTGGCTACGACGGGATT
# B19: UACUCAC (DNA:RNA)
# RNA: B2 RNA with A25U, U26A, A27C, G28U, A29C, C30A
# DNA 1: CAATCTGAATTCCGGTCTCCC
# DNA 2: TGGTGGCTACGACGGGATT
# B20: UUGCUGU (DNA:RNA)
# RNA: B1 RNA with G25U, G26U, G29U, A31U
# DNA 1: CAATCTGAATTCCGGTCTCCC
# DNA 2: TGGTGGCTACGACGGGATT
# B21: CAACCAG (DNA:RNA)
# RNA: B2 RNA with A25C, U26A, G28C, A29C, C30A, C31G
# DNA 1: CAATCTGAATTCCGGTCTCCC
# DNA 2: TGGTGGCTACGACGGGATT
# B22: ACCAUUA (DNA:RNA)
# RNA: B2 RNA with U26C, A27C, G28A, A29U, C30U, C31A
# DNA 1: CAATCTGAATTCCGGTCTCCC
# DNA 2: TGGTGGCTACGACGGGATT
# B23: CUUCAAA (DNA:RNA)
# RNA: B2 RNA with A25C, A27U, G28C, C30A, C31A
# DNA 1: CAATCTGAATTCCGGTCTCCC
# DNA 2: TGGTGGCTACGACGGGATT
# B24: GACCGGC (DNA:RNA)
# RNA: B1 RNA with G26A, G27C, A31C
# DNA 1: CAATCTGAATTCCGGTCTCCC
# DNA 2: TGGTGGCTACGACGGGATT
# B25: CUAUUAC (DNA:RNA)
# RNA: B2 RNA with A25C, G28U, A29U, C30A
# DNA 1: CAATCTGAATTCCGGTCTCCC
# DNA 2: TGGTGGCTACGACGGGATT
# B26: CGCAAAU (DNA:RNA)
# RNA: B2 RNA with A25C, U26G, A27C, G28A, C30A, C31U
# DNA 1: CAATCTGAATTCCGGTCTCCC
# DNA 2: TGGTGGCTACGACGGGATT
# B27: AAAAGAG (DNA:RNA)
# RNA: B2 RNA with U26A, G28A, A29G, C30A, C31G
# DNA 1: CAATCTGAATTCCGGTCTCCC
# DNA 2: TGGTGGCTACGACGGGATT
# B28: GAUAUAU (DNA:RNA)
# RNA: B1 RNA with G26A, G27U, C28A, G29U, G30A, A31U
# DNA 1: CAATCTGAATTCCGGTCTCCC
# DNA 2: TGGTGGCTACGACGGGATT
# B29: AUAUUCG (DNA:RNA)
# RNA: B2 RNA with G28U, A29U, C31G
# DNA 1: CAATCTGAATTCCGGTCTCCC
# DNA 2: TGGTGGCTACGACGGGATT
# B30: CAGGAAU (DNA:RNA)
# RNA: B2 RNA with A25C, U26A, A27G, C30A, C31U
# DNA 1: CAATCTGAATTCCGGTCTCCC
# DNA 2: TGGTGGCTACGACGGGATT
# B31: GUAAUAU (DNA:RNA)
# RNA: B2 RNA with A25G, G28A, A29U, C30A, C31U
# DNA 1: CAATCTGAATTCCGGTCTCCC
# DNA 2: TGGTGGCTACGACGGGATT
# Molecular target: T1, RBFOX1 RRM
# Test: EMSA; HiTS-Eq, 1 nM pool, 10 min; buffer printed only for the single-RNA assays: 10 mM Tris pH 7.5, 150 mM NaCl, 3.4 mM EDTA, 0.001% NP-40, 30 C
# Settings: tags: His6 N-terminal (pET28a); label: 5' 32P
# Method in brief: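 Relative association constants, normalised to the cognate motif, were derived by comparing read counts of each RNA species with those of the control reaction. The RNA sequenced was the free fraction, separated by 8% native PAGE after a 10 min equilibration in 50 µL of 1 nM 5′-radiolabelled RNA (7 randomized nucleotides) with increasing concentrations of purified wild-type or mutant RbFox RRM.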
row,Binder,binding signal
1,B1,0.0166 KA relative to UGCAUGU
2,B2,0.000304 KA relative to UGCAUGU
3,B3,0.00165 KA relative to UGCAUGU
4,B4,0.00902 KA relative to UGCAUGU
5,B5,0.00283 KA relative to UGCAUGU
6,B6,0.00109 KA relative to UGCAUGU
7,B7,0.00262 KA relative to UGCAUGU
8,B8,0.00665 KA relative to UGCAUGU
9,B9,0.0174 KA relative to UGCAUGU
10,B10,0.00407 KA relative to UGCAUGU
11,B11,0.0211 KA relative to UGCAUGU
12,B12,0.00496 KA relative to UGCAUGU
13,B13,0.000491 KA relative to UGCAUGU
14,B14,0.00685 KA relative to UGCAUGU
15,B15,0.0167 KA relative to UGCAUGU
16,B16,0.00452 KA relative to UGCAUGU

row,Binder,binding signal
1,B17,0.0105 KA relative to UGCAUGU
2,B18,0.0126 KA relative to UGCAUGU
3,B19,0.00188 KA relative to UGCAUGU
4,B20,0.0183 KA relative to UGCAUGU
5,B21,0.00142 KA relative to UGCAUGU
6,B22,0.000337 KA relative to UGCAUGU
7,B23,0.00298 KA relative to UGCAUGU
8,B24,0.0106 KA relative to UGCAUGU
9,B25,0.00281 KA relative to UGCAUGU
10,B26,0.00329 KA relative to UGCAUGU
11,B27,0.00314 KA relative to UGCAUGU
12,B28,0.00396 KA relative to UGCAUGU
13,B29,0.00976 KA relative to UGCAUGU
14,B30,0.0106 KA relative to UGCAUGU
15,B31,0.00279 KA relative to UGCAUGU
